Hit rate of the full screen: of about 7,900 compounds, about 400 (5.1%) showed an effect of 50% or more. This is one part of the list.
Biological target: Parkinson's disease protein 7 (PARK7/DJ1) (human, UniProt Q99497)
Assay: primary screen, percent inhibition; read as competition with a fluorescent probe by fluorescence polarization; higher = more effect of the substance
Conditions: 100 µM
Procedure, shortened: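 Covalent fragments at 100 μM final were incubated 2 h with 0.2 μM PARK7, then 20 nM probe JYQ-107 added for a further 2 h. Fluorescence polarization read at 480/520 nm; relative FP loss versus reference controls gave remaining enzyme activity.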

Sequence of Parkinson's disease protein 7 (PARK7/DJ1) (Q99497 whole entry, looked up): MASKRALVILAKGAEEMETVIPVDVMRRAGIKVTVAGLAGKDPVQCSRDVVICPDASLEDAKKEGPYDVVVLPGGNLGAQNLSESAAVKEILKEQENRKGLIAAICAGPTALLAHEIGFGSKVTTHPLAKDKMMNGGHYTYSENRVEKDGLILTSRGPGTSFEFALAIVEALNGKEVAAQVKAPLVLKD

| SMILES | Inhibition % |
| --- | --- |
| CC(NC(=O)c1cccnc1S)C1CC1 (stereo not drawn) | 2.03% |
| NC(=O)C12CC3CC(CC(Cl)(C3)C1)C2 | 4.19% |
| O=C(N1CCOCC1)n1ccnc1 | 4.09% |
| C=CC(=O)NCc1nc(C2CC2)n[nH]1 | 4.37% |
| O=S(=O)(c1ccc(S)nc1)N1CCCCCC1 | 9.73% |
| O=S1(=O)C=CC(N=C=S)C1 (stereo not drawn) | 9.53% |
| O=C1OCCC1N1CCC2(CCCCC2)CC1 (stereo not drawn) | 10.3% |
| N#Cc1c(NC(=O)CC2=CCCCC2)nc2n1CCS2 | 9.5% |
| CC(C)(C)OC(=O)N1CCC2(CC1)CC2B1OC(C)(C)C(C)(C)O1 (stereo not drawn) | -1.51% |
| Cc1nn(C)c(C)c1C1CCCN1C1CC(C)OC1=O (stereo not drawn) | 7.23% |
| O=C(c1cccs1)N1CCCC(CS(=O)(=O)F)C1 (stereo not drawn) | 90.1% |
| CS(=O)(=O)c1ccccc1NC(=O)CCl | 11.4% |
| O=C(Oc1ccc(F)cc1)N1CCOCC1 | 29.6% |
| COc1cc(C)c(Cl)cc1S(=O)(=O)n1ccnc1 | 0.774% |
| COc1ncncc1B1OC(C)(C)C(C)(C)O1 | 1.19% |
| COc1cccc(C#N)c1B1OC(C)(C)C(C)(C)O1 | 8.09% |
| C=CC(=O)N1CCN(c2nnnn2-c2ccccc2)CC1 | 3.12% |
| C=CC(=O)N1CCNC(=O)C1C (stereo not drawn) | 4.1% |
| CC(Cl)c1nc(-c2nnc[nH]2)no1 (stereo not drawn) | 1.55% |
| N#Cc1cccc(NC(=O)NCCCl)c1 | 5.87% |
| Cc1ccc(S(=O)(=O)F)cc1 | 2.62% |
| C=CC(=O)N1CCCC1c1ccc(Cl)cc1 (stereo not drawn) | 6.6% |
| C=CC(=O)NCCC(=O)N1c2ccccc2CCC1C (stereo not drawn) | 5.89% |
| Cc1ccc(C=CC(=O)N2CCC(CN)C2)o1 (stereo not drawn) | 0.775% |
| C#CCN(c1cnc(C#N)cn1)C1CCCC1 | 1.73% |
| O=C(CCl)NCc1cccs1 | 3.94% |

| SMILES | Inhibition % |
| --- | --- |
| O=S(=O)(F)C1CCc2ccccc21 (stereo not drawn) | 11.8% |
| C=CC(=O)N1CCC12CCOC2 (stereo not drawn) | 7.06% |
| Cc1cc(SC#N)cc(C)c1NC(=O)CCl | 4.28% |
| C=CC(=O)NCC1CC(=O)N(c2ccc(Cl)cc2)C1 (stereo not drawn) | 4.09% |
| C=CC(=O)NC1CC(C)OC(C)C1 (stereo not drawn) | 17.4% |
| O=S(=O)(F)CCn1ccc(-c2cccs2)n1 | 21.7% |
| C=CC(=O)Nc1nc2cnccn2n1 | 23% |
| Nc1ccc(S(=O)(=O)F)cc1 | 5.99% |
| C=CC(=O)N1CCN(C2CC2)c2c(C)cccc21 | 2.24% |
| CC1(C)OB(c2cccc(F)c2)OC1(C)C | 5.09% |
| CC1NC(=O)CCC1NC(=O)c1cccc(C#N)n1 (stereo not drawn) | 9.45% |
| C=CC(=O)N1CCOCC1CNS(C)(=O)=O (stereo not drawn) | 7.08% |
| C=CC(=O)N1CCOCC(C)C1 (stereo not drawn) | 6.12% |
| C=CC(=O)N1CCCCC1c1ccc(F)cn1 (stereo not drawn) | 0.15% |
| CC1C(=O)NC1c1ccccc1 (stereo not drawn) | 0.897% |
| C=CC(=O)Nc1nc(C2CCOCC2)cs1 | 14.5% |
| Nc1nccnc1S | 26.8% |
| C=CC(=O)N1CCOCC1c1ccco1 (stereo not drawn) | 5.49% |
| O=S1(=O)C=CC(c2ccccc2)C1 (stereo not drawn) | 12.1% |
| N#Cc1cc(N)ncn1 | 7.87% |
| O=C(CCl)NCc1cccc(F)c1 | 11.2% |
| C=CC(=O)NC(C(=O)O)c1csc(Br)c1 (stereo not drawn) | 10.4% |
| C=CC(=O)N1CCCc2c(F)cccc21 | 7.24% |
| O=C1CNC(=O)N1CCCl | 8.82% |
| COCCOc1ccc(B(O)O)cc1 | 1.59% |
| Cl.ClCCCc1cn[nH]c1 | 2.68% |

| SMILES | Inhibition % |
| --- | --- |
| C=CC(=O)N1CC(C)(C)O[C@@]2(C[C@@H]3CC[C@H]2C3)C1 | 10.3% |
| O=C(NCc1ccccn1)N1CCCC(C2OCCO2)C1 (stereo not drawn) | 14.3% |
| CN1CCN(C(=O)CCCl)CC1.Cl | 5.12% |
| CCC1CCCCN1C(=O)Cn1cnc(C#N)n1 (stereo not drawn) | 11.1% |
| CCCN(c1cc(C#N)ncn1)C1CC1 | 5.8% |
| N#Cc1ccc(S(N)(=O)=O)cn1 | 7.37% |
| COc1ccc(C)cc1S(=O)(=O)Oc1ccccn1 | 17% |
| Cc1cccc(NC(=O)NC2C(=O)OCC2(C)C)n1 (stereo not drawn) | 7.98% |
| C=CC(=O)N1CCOCC1CC(F)F (stereo not drawn) | 17% |
| O=S(=O)(C=Cc1ccccc1)N1CCN2CCCC2C1 (stereo not drawn) | 13.3% |
| Cc1nc(C#N)c(N2CCN(C(=O)CCl)CC2)o1 | 38.4% |
| O=C(CCl)N1CCN(c2cccc(C(F)(F)F)c2)CC1 | 47.9% |
| CC(C)NC(=O)C(C#N)=Cc1ccc(CO)cc1 | 2.67% |
| C=CC(=O)N1CC(CCOC)C1 | -2.91% |
| CN1CCC(CNc2ccc(C#N)nc2)CC1 | 1.29% |
| CC1CCN(C(=O)C=Cc2cn(C)c(=O)n(C)c2=O)CC1 | 10.9% |
| CN(Cc1cccnc1)C(=O)n1ccnc1 | 10.8% |
| COc1cc(S(=O)(=O)n2cccn2)ccc1F | 1.65% |
| CC(C)C1NC(=O)C12CCSCC2 (stereo not drawn) | 0.524% |
| O=C(N1CCC(c2ccccc2)C1)n1ccnc1 (stereo not drawn) | 9.92% |
| C=CC(=O)NCc1ccc(C2CC2)cc1 | 11.7% |
| C=CC(=O)Nc1cc(S(=O)(=O)N(C)C)ccc1Cl | 6.55% |
| CCn1nc(-c2ccc(F)cc2)oc1=O | 11.7% |
| O=C(N1CCOCC1)n1nnc2ccccc21 | 3.38% |
| C=CC(=O)NC1CCCN(C2CCCCC2)C1 (stereo not drawn) | 6.89% |
| CC1(C)OB(c2cccc3scnc23)OC1(C)C | 3.85% |

| SMILES | Inhibition % |
| --- | --- |
| C=CC(=O)N1CCCC1COc1cccnc1C (stereo not drawn) | 6.12% |
| O=C(CCl)N1CCc2sccc2C1 | 83.6% |
| c1ncc(C2OCCO2)s1 | 38.6% |
| C=CC(=O)N1CCC(c2cccc(C)c2)C1 (stereo not drawn) | 1.91% |
| CS(=O)(=O)OCC1CCOCC1 | 20% |
| Cc1nnnn1Cc1ccc(S(=O)(=O)F)cc1 | 18.2% |
| CC(C)c1ccc(C(C)NC(=O)CCl)cc1 (stereo not drawn) | 6.77% |
| O=C(CCCl)N1CCN(c2ccccn2)CC1 | 12.9% |
| O=C1CCCC(CCl)N1 (stereo not drawn) | 9.47% |
| C=CC(=O)NC1C2CCOC2C12CCC2 (stereo not drawn) | 8.04% |
| C=CC(=O)N(C)Cc1c(C)nn(C)c1Cl | 12.5% |
| Cn1nccc1-c1csc(CN2C(=O)CCC2=O)n1 | 13.4% |
| N#CN(CC(=O)N1CCCCCC1)c1ccc(F)cc1 | 6.88% |
| O=C(CCl)Nc1ccc2[nH]c(=O)[nH]c2c1 | 34.3% |
| OC1(CC2CO2)CCOC1 (stereo not drawn) | 9.69% |
| N#Cc1ncn(CC(=O)c2ccccc2F)n1 | 8.61% |
| O=C(C1CCOCC1)N1CCC(S(=O)(=O)F)C1 (stereo not drawn) | 19.5% |
| FC(F)(F)c1ccccc1OCC1CO1 (stereo not drawn) | 11.7% |
| Cc1ccc(C)c(Sc2ccc(NC(=O)CCl)cc2)c1 | 37% |
| Cc1ccc(C#N)c(B2OC(C)(C)C(C)(C)O2)c1 | 8.89% |
| CCOc1cc(C=CC#N)ccc1OC | 0.489% |
| Cl.ClCCc1c[nH]nn1 | 10.9% |
| OB(O)c1ccccc1OCc1ccc(F)cc1Cl | 7.79% |
| C=CCn1c(C)cc(C(=O)CCl)c1C | 58.7% |
| CCn1cc(NS(=O)(=O)C=Cc2ccccc2)cn1 | 81.4% |
| Cc1ccc(CN2CC(S(=O)(=O)F)C2)o1 | 9.92% |

| SMILES | Inhibition % |
| --- | --- |
| N#Cc1cccc(N2CC(CC(F)F)C2)n1 | 7.52% |
| C=CC(=O)N1CC(S(=O)(=O)c2ccccc2F)C1 | 5.39% |
| CC(C)(C)c1cnc(Cn2cnc(C#N)n2)o1 | 0.984% |
| C=CC(=O)N1CCC(C(F)(F)F)c2ccccc21 (stereo not drawn) | 11% |
| CC1CCCN(C(=O)C=Cc2cn(C)c(=O)n(C)c2=O)C1 (stereo not drawn) | -7.83% |
| COC(=O)c1c(F)cccc1NS(=O)(=O)C1=CCCCC1 | 11.2% |
| CSc1ccc(Cn2cnc(C#N)n2)cc1 | 4.13% |
| C=CC(=O)Nc1ccc2c(c1)NC(=O)CS2 | 11.9% |
| CCOC(=O)N1CCC(NC(=O)CCl)CC1 | 8.38% |
| CN1C(=O)SC(Nc2ccc(F)c(Cl)c2)C1=O (stereo not drawn) | 19.3% |
| Cc1nc2c(C(=O)Nc3cccc(S(=O)(=O)F)c3)cccc2o1 | 43.6% |
| C=CC(=O)N1CCC(C2CCC2)C1 (stereo not drawn) | 11.7% |
| COc1cccc(NC2C=CS(=O)(=O)C2)c1 (stereo not drawn) | 4.85% |
| Cc1nn(C)c(Cl)c1Cn1c(-c2ccccc2)noc1=O | 3.8% |
| O=C(CCl)N1N=C(c2ccco2)CC1c1cccs1 (stereo not drawn) | 12.6% |
| N#CC(=Cc1ccc(C(=O)O)cc1)C(=O)N1CCCCC1 | 8.05% |
| C=CC(=O)NCC1CCCN(C)C1c1cccs1 (stereo not drawn) | 5.48% |
| CCN(CC)C(=O)C(C#N)=Cc1ccc2c(c1)OCCO2 | 6.48% |
| CCN(Cc1cnn(C)c1)c1ccc(C#N)nc1 | 16.4% |
| C=CC(=O)N1c2cc(OC)ccc2NC(=O)C1C (stereo not drawn) | 9.84% |
| O=C1NC(c2ccco2)C12CCCC2 (stereo not drawn) | 2.45% |
| O=C(CCl)Nc1ccc(F)c(Cl)c1 | 21.3% |
| Cc1cc(C)n(CCCNc2ccnc(C#N)c2)n1 | 3.45% |
| CC(C)(C)c1nnc(NC(=O)CCl)s1 | 24.2% |
| C=CC(=O)NC1CC(OC)C12CCC2 (stereo not drawn) | 3.73% |

From PMC9574860, “Chemical Toolkit for PARK7: Potent, Selective, and High-Throughput” (Journal of Medicinal Chemistry, 2022)
